{
  "source": "the supplement of paper PMC8728848",
  "experiment_in_all_cases": "glycan array binding signal (z-score within array); higher = stronger binding",
  "conditions_in_all_cases": "glycan notation: IUPAC condensed, linker removed; mutation: F355A",
  "key": {"[1]": {"biological_target": "GlcA(b1-3)GlcNAc", "method_in_brief": "(§1)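 Arrays were curated from the Consortium for Functional Glycomics database, 3228 in total, and kept only where the protein sequence was available. Binding is expressed as a within-array Z-score. This score was averaged across arrays of the same protein sequence at different concentrations or buffers and across linkers, and negative values can be read as non-binding.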"}, "[2]": {"biological_target": "GlcA(b1-6)Gal", "method_in_brief": "as §1"}, "[3]": {"biological_target": "GlcNAc(a1-3)Gal(b1-4)GlcNAc", "method_in_brief": "as §1"}, "[4]": {"biological_target": "GlcNAc(a1-6)Gal(b1-4)GlcNAc", "method_in_brief": "as §1"}, "[5]": {"biological_target": "GlcNAc(b1-2)Gal(b1-3)GalNAc", "method_in_brief": "as §1"}, "[6]": {"biological_target": "GlcNAc(b1-2)Man(a1-3)[GlcNAc(b1-2)Man(a1-6)]Man(b1-4)GlcNAc(b1-4)GlcNAc", "method_in_brief": "as §1"}, "[7]": {"biological_target": "GlcNAc(b1-3)Gal", "method_in_brief": "as §1"}, "[8]": {"biological_target": "GlcNAc(b1-3)Gal(b1-3)GalNAc", "method_in_brief": "as §1"}, "[9]": {"biological_target": "GlcNAc(b1-3)Gal(b1-4)Glc", "method_in_brief": "as §1"}, "[10]": {"biological_target": "GlcNAc(b1-3)Gal(b1-4)GlcNAc", "method_in_brief": "as §1"}, "[11]": {"biological_target": "GlcNAc(b1-3)Gal(b1-4)GlcNAc(b1-3)Gal(b1-4)GlcNAc", "method_in_brief": "as §1"}, "[12]": {"biological_target": "GlcNAc(b1-3)GalNAc", "method_in_brief": "as §1"}, "[13]": {"biological_target": "GlcNAc(b1-3)Man", "method_in_brief": "as §1"}, "[14]": {"biological_target": "GlcNAc(b1-3)[GlcNAc(b1-4)][GlcNAc(b1-6)]GlcNAc", "method_in_brief": "as §1"}, "[15]": {"biological_target": "GlcNAc(b1-3)[GlcNAc(b1-6)]Gal(b1-4)GlcNAc", "method_in_brief": "as §1"}, "[16]": {"biological_target": "GlcNAc(b1-3)[GlcNAc(b1-6)]GalNAc", "method_in_brief": "as §1"}, "[17]": {"biological_target": "GlcNAc(b1-4)Gal(b1-4)GlcNAc", "method_in_brief": "as §1"}, "[18]": {"biological_target": "GlcNAc(b1-4)GlcNAc", "method_in_brief": "as §1"}, "[19]": {"biological_target": "GlcNAc(b1-4)GlcNAc(b1-4)GlcNAc", "method_in_brief": "as §1"}, "[20]": {"biological_target": "GlcNAc(b1-4)GlcNAc(b1-4)GlcNAc(b1-4)GlcNAc(b1-4)GlcNAc", "method_in_brief": "as §1"}, "[21]": {"biological_target": "GlcNAc(b1-4)GlcNAc(b1-4)GlcNAc(b1-4)GlcNAc(b1-4)GlcNAc(b1-4)GlcNAc", "method_in_brief": "as §1"}, "[22]": {"biological_target": "GlcNAc(b1-4)[GlcNAc(b1-6)]GalNAc", "method_in_brief": "as §1"}, "[23]": {"biological_target": "GlcNAc(b1-6)Gal(b1-4)GlcNAc", "method_in_brief": "as §1"}, "[24]": {"biological_target": "GlcNAc(b1-6)GalNAc", "method_in_brief": "as §1"}, "[25]": {"biological_target": "GlcNAc3Prop(b1-4)GlcNAc", "method_in_brief": "as §1"}, "[26]": {"biological_target": "Kdn(a2-3)Gal(b1-3)GlcNAc", "method_in_brief": "as §1"}, "[27]": {"biological_target": "Kdn(a2-3)Gal(b1-4)GlcNAc", "method_in_brief": "as §1"}, "[28]": {"biological_target": "Man(a1-2)Man(a1-2)Man(a1-3)Man", "method_in_brief": "as §1"}, "[29]": {"biological_target": "Man(a1-2)Man(a1-2)Man(a1-6)[Man(a1-3)]Man", "method_in_brief": "as §1"}, "[30]": {"biological_target": "Man(a1-2)Man(a1-3)Man", "method_in_brief": "as §1"}, "[31]": {"biological_target": "Man(a1-2)Man(a1-3)[Man(a1-2)Man(a1-6)]Man", "method_in_brief": "as §1"}, "[32]": {"biological_target": "Man(a1-2)Man(a1-3)[Man(a1-2)Man(a1-6)]Man(a1-6)[Man(a1-2)Man(a1-2)Man(a1-3)]Man", "method_in_brief": "as §1"}, "[33]": {"biological_target": "Man(a1-2)Man(a1-3)[Man(a1-2)Man(a1-6)]Man(a1-6)[Man(a1-2)Man(a1-2)Man(a1-3)]Man(b1-4)GlcNAc(b1-4)GlcNAc", "method_in_brief": "as §1"}, "[34]": {"biological_target": "Man(a1-2)Man(a1-3)[Man(a1-6)]Man(a1-6)[Man(a1-2)Man(a1-3)]Man(b1-4)GlcNAc(b1-4)GlcNAc", "method_in_brief": "as §1"}, "[35]": {"biological_target": "Man(a1-2)Man(a1-6)[Man(a1-3)]Man(a1-6)[Man(a1-2)Man(a1-2)Man(a1-3)]Man", "method_in_brief": "as §1"}, "[36]": {"biological_target": "Man(a1-2)Man(a1-6)[Man(a1-3)]Man(a1-6)[Man(a1-2)Man(a1-2)Man(a1-3)]Man(b1-4)GlcNAc(b1-4)GlcNAc", "method_in_brief": "as §1"}, "[37]": {"biological_target": "Man(a1-3)[Man(a1-6)]Man", "method_in_brief": "as §1"}},
  "note": "Some of the results follow.",
  "data": [
    {"binder": "Surfactant Protein D (Human); Neck + Carbohydrate Recognition Domain (NCRD) (Homo sapiens) (protein) MLLFLLSALVLLTQPLGYLEAEMKTYSHRTMPSACTLVMCSSVESGLPGRDRDGREGPRGEKGDPGLPGAAGQAGMPGQAGPVGPKGDNGSVGEPGPKGDTGPSGPPGPPGVPGPAGREGALGKQGNIGPQGKPGPKGEAGPKGEVGAPGMQGSAGARGLAGPKGERGVPGERGVPGNTGAAGSAGAMGPQGSPGARGPPGLKGDKGIPGDKGAKGESGLPDVASLRQQVEALQGQVQHLQAAFSQYKKVELFPNGQSVGEKIFKTAQFVKPFTEAQLLCTQAGGQLASPRSAAENAALQQLVVAKNEAAFLSMTDSKTEGKFTYPTGESLVYSNWAPGEPNDDGGSEDCVEIFTNGKWNDRACGEKRLVVCEA", "values": [
      {"measurement": "glycan array binding signal (z-score)", "setting": "[1]", "result": -0.013},
      {"measurement": "glycan array binding signal (z-score)", "setting": "[2]", "result": -0.126},
      {"measurement": "glycan array binding signal (z-score)", "setting": "[3]", "result": -0.13},
      {"measurement": "glycan array binding signal (z-score)", "setting": "[4]", "result": -0.164},
      {"measurement": "glycan array binding signal (z-score)", "setting": "[5]", "result": -0.138},
      {"measurement": "glycan array binding signal (z-score)", "setting": "[6]", "result": -0.127},
      {"measurement": "glycan array binding signal (z-score)", "setting": "[7]", "result": -0.15},
      {"measurement": "glycan array binding signal (z-score)", "setting": "[8]", "result": -0.131},
      {"measurement": "glycan array binding signal (z-score)", "setting": "[9]", "result": -0.147},
      {"measurement": "glycan array binding signal (z-score)", "setting": "[10]", "result": -0.146},
      {"measurement": "glycan array binding signal (z-score)", "setting": "[11]", "result": -0.138},
      {"measurement": "glycan array binding signal (z-score)", "setting": "[12]", "result": -0.136},
      {"measurement": "glycan array binding signal (z-score)", "setting": "[13]", "result": -0.154},
      {"measurement": "glycan array binding signal (z-score)", "setting": "[14]", "result": -0.118},
      {"measurement": "glycan array binding signal (z-score)", "setting": "[15]", "result": -0.142},
      {"measurement": "glycan array binding signal (z-score)", "setting": "[16]", "result": -0.099},
      {"measurement": "glycan array binding signal (z-score)", "setting": "[17]", "result": -0.146},
      {"measurement": "glycan array binding signal (z-score)", "setting": "[18]", "result": -0.115},
      {"measurement": "glycan array binding signal (z-score)", "setting": "[19]", "result": -0.155},
      {"measurement": "glycan array binding signal (z-score)", "setting": "[20]", "result": -0.122},
      {"measurement": "glycan array binding signal (z-score)", "setting": "[21]", "result": -0.146},
      {"measurement": "glycan array binding signal (z-score)", "setting": "[22]", "result": -0.124},
      {"measurement": "glycan array binding signal (z-score)", "setting": "[23]", "result": -0.114},
      {"measurement": "glycan array binding signal (z-score)", "setting": "[24]", "result": -0.153},
      {"measurement": "glycan array binding signal (z-score)", "setting": "[25]", "result": -0.098},
      {"measurement": "glycan array binding signal (z-score)", "setting": "[26]", "result": -0.133},
      {"measurement": "glycan array binding signal (z-score)", "setting": "[27]", "result": -0.072},
      {"measurement": "glycan array binding signal (z-score)", "setting": "[28]", "result": 0.779},
      {"measurement": "glycan array binding signal (z-score)", "setting": "[29]", "result": 2.74},
      {"measurement": "glycan array binding signal (z-score)", "setting": "[30]", "result": -0.159},
      {"measurement": "glycan array binding signal (z-score)", "setting": "[31]", "result": 4.68},
      {"measurement": "glycan array binding signal (z-score)", "setting": "[32]", "result": 15},
      {"measurement": "glycan array binding signal (z-score)", "setting": "[33]", "result": -0.132},
      {"measurement": "glycan array binding signal (z-score)", "setting": "[34]", "result": 0.902},
      {"measurement": "glycan array binding signal (z-score)", "setting": "[35]", "result": 1.29},
      {"measurement": "glycan array binding signal (z-score)", "setting": "[36]", "result": 1.59},
      {"measurement": "glycan array binding signal (z-score)", "setting": "[37]", "result": -0.064}
    ]}
  ]
}
